From the supplement of paper PMC11348887 come the findings set out here.

Structures are written as SMILES. Structures can show the parent of a compound that is named as a salt. The list shows a part of the results. Rule as the data show it: active = -2 or less and inactive = the rest. Repeats are few or missing, and single values can be far off.
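Also: nuclei counted from DAPI counterstain by automated high-content image analysis, four fields per well at ×20 in 384-well plates, with sequential b-score then z-score normalization.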

This assay concerns hPSC-derived cortical neurons (WA09). Kind of assay: nuclei number (viability) z-score; higher = more surviving cells. Particulars: 5 µM; treatment: days 7-14 after plating, readout day 21.
Take `CNC(=O)[C@H](Cc1c[nH]c2ccccc12)NC(=O)[C@@H](CC(=O)NO)CC(C)C` [Ilomastat (GM6001, Galardin)]: the “nuclei number (z-score)” value is inactive: -1.02. To `C[C@H]1C[C@H]2[C@@H]3CCC4=CC(=O)C=C[C@]4(C)[C@@]3(F)[C@@H](O)C[C@]2(C)[C@@]1(O)C(=O)CO` [Betamethasone] belongs inactive: 2.51; to `Oc1ccc(OCc2ccccc2)cc1` [Monobenzone], inactive: -0.734. Take `CC1=Nc2ccc(Cl)cc2S(=O)(=O)N1` [Diazoxide]: the “nuclei number (z-score)” value is inactive: 1.32.

On to `CO[C@@]12[C@H](COC(N)=O)C3=C(C(=O)C(C)=C(N)C3=O)N1C[C@@H]1N[C@@H]12` [Mitomycin C], for which the “nuclei number (z-score)” value is active: -5.73. The result for `COc1cc(O)c(CC=C(C)C)c(O)c1C(=O)/C=C/c1ccc(O)cc1` [Xanthohumol] reads inactive: 1.21; that for `Cc1cc(/N=N/c2ccc(S(=O)(=O)Nc3ccccn3)cc2)c(N)cc1O`, inactive: 0.0241; that for `CN(C)CCOc1ccc(/C(=C(/CCCl)c2ccccc2)c2ccccc2)cc1` [Toremifene Citrate], inactive: -0.936. The result for `CC(C)(Cc1ccc2ccccc2c1)NC[C@@H](O)COc1cccc(Cl)c1C#N` reads inactive: -0.19; that for `O=C(c1cn(Cc2cncn2Cc2ccc(Br)cc2)cc1-c1cccc2ccccc12)N1CCOCC1`, inactive: -1.48; that for `CCN1CCN(C(=O)N[C@@H](C(=O)N[C@@H]2C(=O)N3C(C(=O)O)=C(CSc4nnnn4C)CS[C@H]23)c2ccc(O)cc2)C(=O)C1=O` [Cefoperazone], inactive: -0.383. To `Cc1ccc(Cl)c(Nc2ccccc2C(=O)O)c1Cl` [Meclofenamate Sodium] belongs inactive: -0.74.

Take `O=C(NCCO[N+](=O)[O-])c1cccnc1` [Nicorandil]: the “nuclei number (z-score)” value was inactive: -0.0492. The result for `CCCN(CCC)C(=O)C1=Cc2ccc(-c3ccc(C(=O)N4CCCC4)cc3)cc2N=C(N)C1` [Motolimod (VTX-2337)] reads inactive: 0.457; that for `CC(C)CC(=O)N[C@H](C(=O)N[C@H](C(=O)N[C@@H](CC(C)C)[C@@H](O)CC(=O)N[C@@H](C)C(=O)N[C@@H](CC(C)C)[C@@H](O)CC(=O)O)C(C)C)C(C)C` [Pepstatin A], inactive: 0.0195; that for `O=c1cc[nH]c(=S)[nH]1` [2-Thiouracil], inactive: 0.347. To `C[C@H](O)C(=O)Nc1c(I)c(C(=O)NC(CO)CO)c(I)c(C(=O)NC(CO)CO)c1I` [Iopamidol] belongs inactive: 0.776. To `COC(=O)N(C)c1c(N)nc(-c2nn(Cc3ccccc3F)c3ncccc23)nc1N` [Riociguat (BAY 63-2521)] belongs inactive: 0.346. As for `Nc1nc(NCCc2ccc(O)cc2)nc2nc(-c3ccco3)nn12`, the “nuclei number (z-score)” value is inactive: 0.217. The result for `O=C(/C=C/c1ccc(CN(CCO)CCc2c[nH]c3ccccc23)cc1)NO` [LAQ824 (Dacinostat)] reads active: -3.72; that for `Cc1nc(-c2cn3c(n2)-c2ccc(-c4cnn(C(C)(C)C(N)=O)c4)cc2OCC3)n(C(C)C)n1`, inactive: -0.295. As for `CC(C)(C)c1ccc(-c2nc3ccccc3[nH]2)cc1`, the “nuclei number (z-score)” value was inactive: -0.0486. With `COc1ccc(S(=O)(=O)N(C(C)=O)c2ccccc2/C=C/c2cc[n+]([O-])cc2)cc1`, the “nuclei number (z-score)” value is active: -4.74. The result for `Cc1c(F)cc(C(=O)NC2CC2)cc1-c1ccc(C(=O)NCC(C)(C)C)cn1` reads inactive: 2.57.

Regarding `O=C(NOC[C@H](O)CO)c1ccc(F)c(F)c1Nc1ccc(I)cc1F`, the “nuclei number (z-score)” value is inactive: 0.224. To `CC(C)c1cc(-c2ccc(F)c3ccccc23)nc(N)n1` belongs inactive: -0.0215. To `Cc1cc(C)c(/C=C2\C(=O)Nc3ccccc32)[nH]1` [Semaxanib (SU5416)] belongs inactive: 1.88; to `CC[C@H]1OC(=O)[C@H](C)[C@@H](O[C@H]2C[C@@](C)(OC)[C@@H](O)[C@H](C)O2)[C@H](C)[C@@H](O[C@@H]2O[C@H](C)C[C@H](N(C)C)[C@H]2O)[C@](C)(O)C[C@@H](C)[C@@H]2N[C@@H](COCCOC)O[C@H]([C@H]2C)[C@]1(C)O` [Dirithromycin], inactive: 2.45. To `O=C1CC2(CCCC2)CC(=O)N1CCCCN1CCN(c2ncccn2)CC1` [Buspirone HCl] belongs inactive: 1.09. `Nc1ncnc2c1c(I)cn2[C@@H]1O[C@H](CO)[C@@H](O)[C@H]1O` [5-Iodotubercidin]: the “nuclei number (z-score)” value is inactive: -1.78. To `Nc1ccc2cc3ccc(N)cc3nc2c1` [Proflavine Hemisulfate] belongs active: -7.4; to `C[C@H](CCC(=O)O)[C@H]1CC[C@H]2[C@@H]3CC[C@@H]4C[C@H](O)CC[C@]4(C)[C@H]3C[C@H](O)[C@]12C` [Deoxycholic acid], inactive: -0.874.

In the case of `CC(=O)Nc1ncc([N+](=O)[O-])s1` [Nithiamide], the “nuclei number (z-score)” value is inactive: 0.281.

Regarding `CCCCCCCCCCCCCCCC(=O)O[C@@H]1[C@@H](O)[C@@H](O)[C@@H]([C@H](NC(=O)[C@@H]2C[C@@H](CCC)CN2C)[C@H](C)Cl)O[C@@H]1SC` [Clindamycin palmitate HCl], the “nuclei number (z-score)” value was inactive: 0.313. To `CNc1cccc(CCOc2ccc3c(c2)CN(CC(F)(F)F)C(=O)[C@H](CC(=O)O)C3)n1` belongs inactive: 1.6; to `CO/N=C(\C(=O)N[C@@H]1C(=O)N2C(C(=O)O)=C(COC(N)=O)CS[C@H]12)c1ccco1` [Cefuroxime sodium], inactive: -0.383; to `CN1CCN(CCOc2cc(OC3CCOCC3)c3c(Nc4c(Cl)ccc5c4OCO5)ncnc3c2)CC1` [Saracatinib (AZD0530)], inactive: 0.696.

For `CCOCC(O)COc1ccc(NC(=O)CC[S+](C)C)cc1` (configuration not stated) [Suplatast Tosylate], the “nuclei number (z-score)” value was inactive: 1.26. With `O=C(O)c1ccc(CN2CCC(CN[C@@H]3C[C@H]3c3ccccc3)CC2)cc1`, the “nuclei number (z-score)” value was inactive: 0.24. To `O=C(/C=C\n1cnc(-c2cc(C(F)(F)F)cc(C(F)(F)F)c2)n1)NNc1ccccn1` [Verdinexor (KPT-335)] belongs active: -5.65; to `CC1Cc2ccccc2N1NC(=O)c1ccc(Cl)c(S(N)(=O)=O)c1` (configuration not stated) [Indapamide], inactive: -0.314; to `CCC(=O)c1c(O)cc(O)cc1O` [Flopropione], inactive: 0.872. The result for `C=CC(=O)Nc1ccc2ncnc(Nc3cccc(Br)c3)c2c1` reads inactive: -0.546.

For the compound `O=C1C[C@@H](c2ccc(O)cc2)Oc2cc(O)cc(O)c21` [Naringenin], the “nuclei number (z-score)” value is inactive: 0.00437.

In the case of `CCC(=O)O[C@]1(C(=O)CCl)[C@@H](C)C[C@H]2[C@@H]3CCC4=CC(=O)C=C[C@]4(C)[C@@]3(F)[C@@H](O)C[C@@]21C` [Clobetasol propionate], the “nuclei number (z-score)” value is inactive: 1.17. The result for `O=S(=O)(O)c1cc(O)ccc1O` [Ethamsylate] reads inactive: 0.139; that for `COc1ccc(F)c(F)c1C(=O)c1cnc(NC2CCN(S(C)(=O)=O)CC2)nc1N`, active: -2.45.

Take `CCCCC(F)(F)[C@@]1(O)CC[C@H]2[C@@H](CC(=O)[C@@H]2CCCCCCC(=O)O)O1` [Lubiprostone]: the “nuclei number (z-score)” value was inactive: -0.568.

`CCOC(=O)[C@H](CCc1ccccc1)N[C@H]1CS[C@H](c2cccs2)CN(CC(=O)O)C1=O` [Temocapril HCl]: the “nuclei number (z-score)” value is inactive: -0.287. `O=C1OCCN1/N=C/c1ccc([N+](=O)[O-])o1` [Furazolidone]: the “nuclei number (z-score)” value is inactive: -0.172. The result for `COc1ccc(C2CNC(=O)C2)cc1OC1CCCC1` (configuration not stated) [Rolipram] reads inactive: -0.087.

For `O=c1c(O)c(-c2ccc(O)cc2O)oc2cc(O)cc(O)c12` [Morin Hydrate], the “nuclei number (z-score)” value was inactive: -1.34. The result for `OC[C@H]1O[C@@H](Oc2cc(O)cc(/C=C/c3ccc(O)cc3)c2)[C@H](O)[C@@H](O)[C@@H]1O` [Polydatin] reads inactive: 0.195; that for `CC(=O)Nc1nc(C)c(-c2ccc(Cl)c(S(=O)(=O)NCCO)c2)s1`, inactive: 0.0457.

As for `CCn1cc(-c2cccc(C(F)(F)F)c2)c2sc(C(=N)NC3CCS(=O)(=O)CC3)cc2c1=O`, the “nuclei number (z-score)” value is inactive: -0.0955. To `C[C@H]1C[C@@H]2[C@H]([C@@H](O)C[C@@]3(C)[C@H]2CC[C@]3(O)C(=O)CO)[C@@]2(C)C=CC(=O)C=C12` [Methylprednisolone] belongs inactive: 0.00686; to `COc1cc([C@@H]2c3cc4c(cc3[C@@H](O[C@@H]3O[C@@H]5CO[C@@H](C)O[C@H]5[C@H](O)[C@H]3O)[C@H]3COC(=O)[C@H]23)OCO4)cc(OC)c1O` [Etoposide], inactive: 0.442. To `COc1ccccc1OCC(O)CN1CCN(CC(=O)Nc2c(C)cccc2C)CC1` (configuration not stated) [Ranolazine] belongs inactive: 0.907; to `COc1ccccc1OCC(O)CN1CCN(CC(=O)Nc2c(C)cccc2C)CC1` (configuration not stated) [Ranolazine 2HCl], inactive: 2.91.

On to `CN(C)C(=S)NN=C(c1ccccn1)c1ccccn1`, for which the “nuclei number (z-score)” value is active: -6.82. To `CNS(=O)(=O)C[C@H]1CC[C@H](N(C)c2[nH]cnc3nccc2-3)CC1` [Oclacitinib] belongs inactive: 1.05; to `O=C1c2ccc(Nc3ccc(F)cc3F)cc2CCc2ccc(OC[C@H](O)CO)cc21` [Skepinone-L], inactive: 0.911; to `CCCNCC(O)COc1ccccc1C(=O)CCc1ccccc1` (configuration not stated) [Propafenone HCl], inactive: -0.0866. To `NC(=O)C(c1ccccc1)(c1ccccc1)[C@@H]1CCN(CCc2ccc3c(c2)CCO3)C1` [Darifenacin HBr] belongs inactive: -0.849. The result for `CCn1c(=O)c(-c2cc[nH]n2)cc2c(C)nc(N)nc21` reads inactive: 0.15; that for `CN(C)c1nc(N(C)C)nc(N(C)C)n1` [Altretamine], inactive: 0.12; that for `Nc1nc2n[nH]nc2c(=O)[nH]1` [Azaguanine-8], inactive: -0.852.
